± gives the standard deviation of the averaged measurements. Some of the results follow.

The subject of the assay is PfAP2-LT AP2 domain (GST-tagged). Put plainly: gcPBM binding intensity (ln(normalized median fluorescence intensity)); higher = stronger DNA binding. Put shortly: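 GST-tagged P. falciparum DNA-binding domains produced in E. coli were incubated for 1 h on an Agilent 4 × 180k array of primer-extended double-stranded 36-bp intergenic genomic probes with negative controls. Binding intensity is the highest Masliner-normalised natural-log median intensity across replicate spots of either probe orientation, with bound protein detected by Alexa488 anti-GST antibody at 488 nm.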
In the case of “TAGCTTTTGCCTTTTTTTAAAAAAAAATAAATAAAT [TGCATGCA_negctrl_site242]”, the “gcPBM binding intensity (ln)” value was 8.06 ± 0.31.
In the case of “TTTTTTTTTATGTGCACACAAAAGATGCTTATATTT [CACACA_site2348]”, the “gcPBM binding intensity (ln)” value worked out at 9.14 ± 0.28.
Then “TGCATATACATATGTAGTACAATAATTTGAAAAAAA [XGTACX_site5239]”, with 8.77 ± 0.4.
In the case of “ATAAATATATGAAATATACACACTTCTTTGGTATTA [CACACA_site456]”, the “gcPBM binding intensity (ln)” value was 8.78 ± 0.43.
Regarding “TTTCGTAACTATTTGTGTACATATATATATATATAT [XGTACX_site2920]”, the “gcPBM binding intensity (ln)” value was 9.37 ± 0.3.
On to “ATTTTCTTTTCCATAGTGCAATATAATTATCCATCA [GTGCAC_site9547]”, for which the “gcPBM binding intensity (ln)” value amounted to 8.74 ± 0.41.
As for “ATTTTGTGCGCACACACATGCAAAAAGAAATATGAT [TGCATGCA_site261]”, the “gcPBM binding intensity (ln)” value was 9.5 ± 0.33.
For “AAAGAGAGTATCTAATGTACGTATGTATGTATATAT [XGTACX_site1780]”, the “gcPBM binding intensity (ln)” value came to 8.96 ± 0.52.
Consider “TATTATATATTAAATGCATGTAAAAATAATATTAAA [TGCATGCA_site643]”, for which the “gcPBM binding intensity (ln)” value turned out to be 8.48 ± 0.47.
As to “AATTATTTACCCTATACACACAAAACACGCTAAAAA [CACACA_site1211]”, the “gcPBM binding intensity (ln)” value was determined as 9.17 ± 0.23.
“ATATTATAATAAATGTGTACATATTGTAGAAATATT [XGTACX_site8101]”: the “gcPBM binding intensity (ln)” value amounted to 8.94 ± 0.49.
Take “ATAAATACACACAAGTGTACATACTTCTATAAATAT [XGTACX_site1845]”: the “gcPBM binding intensity (ln)” value worked out at 9.08 ± 0.33.
Take “ATCGTGAATAATATCTGTACATATGAACACATATAT [XGTACX_site952]”: the “gcPBM binding intensity (ln)” value was determined as 9.04 ± 0.49.
As to “TCACATACATGAAAATGTACTTTTATAATTCCATAA [XGTACX_site1836]”, the “gcPBM binding intensity (ln)” value amounted to 8.55 ± 0.41.
For “GTTATAAATAAATACACACATACAAAAATATGACGT [CACACA_site1154]” the value was 9.25 ± 0.3; for “ATATAAAATACATGGGTGCAATATATTAAACAAATA [GTGCAC_site9421]”, 8.91 ± 0.47.
“TATGACCTTAGAAATTGTACAAGAAAAAATGTTACA [XGTACX_site7084]”: the “gcPBM binding intensity (ln)” value worked out at 8.59 ± 0.54.
Then “TCTGTAAATACGTGCACACACAAATCACAAATGTGA [CACACA_site330]”, with 9.21 ± 0.27.
In the case of “TAAATAATTTCACGAATGACAAAGATATAATAAGTT [CACACA_negctrl_site1430]”, the “gcPBM binding intensity (ln)” value is 8.71 ± 0.45.
Then “TAAAGGTGAACAATACGTACATAAGAACTTATGAGG [XGTACX_site4216]”, with 8.94 ± 0.4.
Then “ATATATATTTTTTAAACACACACATAAATATTTGTG [CACACA_site8936]”, with 9.18 ± 0.4.
Regarding “AATACACAAATATATTGTACATATATATATATATAT [XGTACX_site2440]”, the “gcPBM binding intensity (ln)” value turned out to be 9.77 ± 0.16.
For “ACTTATTATTAATATTGTACTCTTGAAAATTGTGGA [XGTACX_site6315]” the value was 8.57 ± 0.49.
Regarding “CATATATAAATATAAATATATATATATATATATATG [XGTACX_negctrl_site493]”, the “gcPBM binding intensity (ln)” value was determined as 8.82 ± 0.32.
In the case of “ATATATATATATATATGTACATATGTATATTTTTTT [XGTACX_site1299]”, the “gcPBM binding intensity (ln)” value stood at 9.77 ± 0.44.
As to “TTCTTCAAGGAAAACACATGCGCATTTTCACCAATT [TGCATGCA_site11]”, the “gcPBM binding intensity (ln)” value was found to be 8.98 ± 0.43.
For “AAAATTATAATAATATGTACTTAAAAAATTTATATA [XGTACX_site632]” the value was 8.35 ± 0.51; for “TATATATATATATGTGCATGTTCCCCATGCTTCCAT [TGCATGCA_site366]”, 9.86 ± 0.11; for “AATATATATATATATAGTACATATTTTTATTCATTA [XGTACX_site2156]”, 8.8 ± 0.28.
Turning to “TATATGTATTTATATACACACATATTCTTTTGACAC [CACACA_site1206]”, the “gcPBM binding intensity (ln)” value was found to be 9.13 ± 0.36.
On to “TTTAAACAAGGATCCACACACCCCAAAAAAAAAAGA [CACACA_site680]”, for which the “gcPBM binding intensity (ln)” value turned out to be 9.26 ± 0.4.
For the sequence “TTTTTATTTTTGTAGTGTACTTTATTTTTTTTGTTT [XGTACX_site8887]”, the “gcPBM binding intensity (ln)” value was determined as 8.89 ± 0.57.
For “TATATATATATATACACACACACACCCATATATATA [CACACA_site2538]”, the “gcPBM binding intensity (ln)” value came out at 10.2 ± 0.3.
“CTGTATTCATAATTCACACAAATGGTTTATATGAAT [CACACA_site4315]”: the “gcPBM binding intensity (ln)” value came to 8.71 ± 0.47.
Take “CATACATACAGATATACACACATATATAATAATATA [CACACA_site5477]”: the “gcPBM binding intensity (ln)” value was 9.27 ± 0.37.
For the sequence “CATATTTGCACTTTCACACATAAATATATAACTATA [CACACA_site6016]”, the “gcPBM binding intensity (ln)” value came out at 8.9 ± 0.41.
Regarding “TTACAAATGGTTTACACACACATAATTGTATCAATT [CACACA_site4167]”, the “gcPBM binding intensity (ln)” value amounted to 9.24 ± 0.24.
Turning to “TAATATATGAGAAATTGTACAGAAAGGAATATGCTT [XGTACX_site5300]”, the “gcPBM binding intensity (ln)” value worked out at 8.79 ± 0.37.
For “TATATATGTTCAATATGTACATATATATAAGTGTAT [XGTACX_site5157]”, the “gcPBM binding intensity (ln)” value came out at 8.79 ± 0.41.
For “ATATTATTGTAGAAATGTACATATATATATATATAT [XGTACX_site1882]” the value was 9.73 ± 0.32; for “AAGAAATATTTATACACACACACAAACATATATATA [CACACA_site1912]”, 9.8 ± 0.2.
Then “CAAAAGTATAATAATACACACACTTTAAAAGTTAAA [CACACA_site3343]”, with 9.09 ± 0.48; and “AAAAATAAAATAAAATAAAATAAACATACCATATGT [CACACA_negctrl_site594]”, with 8.79 ± 0.5; and TAGATTCTTGAATAAGTGCAAAATATAATATTTATT, with 8.56 ± 0.42.
In the case of “CATTTGATAAGATACACACACAAGGAAAAAAATAAA [CACACA_site350]”, the “gcPBM binding intensity (ln)” value was determined as 9.48 ± 0.52.

These data come from the supplement of paper PMC11417369.
